Reference: PubChem BioAssay (NCATS)
The shares of active, inactive and inconclusive entries below differ from those in the screen. For some assays here: Potencies beside an inconclusive call are fits to weak or partial responses and may not hold up. Active and inactive are the calls of the source. Unless noted, the call rests on the fitted dose curve; in most records, active means well fitted curve in the direction sought with a large enough effect; inconclusive means small, poorly fitted or top-dose-only effect, or another doubt; inactive means no such curve, though single readings can be large; an effect the other way counts as inactive or inconclusive.

Columns and labels:
[1] = qHTS for differential inhibitors of proliferation of Plasmodium falciparum line HB3 (AID 1886); conditions: Potency: Plasmodium falciparum HB3 proliferation inhibition;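 further: parasites grown with compound for 72 h before SYBR Green readout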; further: potency means the concentration at half of the fitted maximal effect
[2] = molecular target: RecQ-like DNA helicase BLM (Homo sapiens) (UniProt P54132); experiment: qHTS Validation Assay for Inhibitors of Bloom's syndrome helicase (BLM) (AID 2364); further: potency means the concentration at half of the fitted maximal effect
Chain of UniProt P54132 (P54132 whole entry, looked up): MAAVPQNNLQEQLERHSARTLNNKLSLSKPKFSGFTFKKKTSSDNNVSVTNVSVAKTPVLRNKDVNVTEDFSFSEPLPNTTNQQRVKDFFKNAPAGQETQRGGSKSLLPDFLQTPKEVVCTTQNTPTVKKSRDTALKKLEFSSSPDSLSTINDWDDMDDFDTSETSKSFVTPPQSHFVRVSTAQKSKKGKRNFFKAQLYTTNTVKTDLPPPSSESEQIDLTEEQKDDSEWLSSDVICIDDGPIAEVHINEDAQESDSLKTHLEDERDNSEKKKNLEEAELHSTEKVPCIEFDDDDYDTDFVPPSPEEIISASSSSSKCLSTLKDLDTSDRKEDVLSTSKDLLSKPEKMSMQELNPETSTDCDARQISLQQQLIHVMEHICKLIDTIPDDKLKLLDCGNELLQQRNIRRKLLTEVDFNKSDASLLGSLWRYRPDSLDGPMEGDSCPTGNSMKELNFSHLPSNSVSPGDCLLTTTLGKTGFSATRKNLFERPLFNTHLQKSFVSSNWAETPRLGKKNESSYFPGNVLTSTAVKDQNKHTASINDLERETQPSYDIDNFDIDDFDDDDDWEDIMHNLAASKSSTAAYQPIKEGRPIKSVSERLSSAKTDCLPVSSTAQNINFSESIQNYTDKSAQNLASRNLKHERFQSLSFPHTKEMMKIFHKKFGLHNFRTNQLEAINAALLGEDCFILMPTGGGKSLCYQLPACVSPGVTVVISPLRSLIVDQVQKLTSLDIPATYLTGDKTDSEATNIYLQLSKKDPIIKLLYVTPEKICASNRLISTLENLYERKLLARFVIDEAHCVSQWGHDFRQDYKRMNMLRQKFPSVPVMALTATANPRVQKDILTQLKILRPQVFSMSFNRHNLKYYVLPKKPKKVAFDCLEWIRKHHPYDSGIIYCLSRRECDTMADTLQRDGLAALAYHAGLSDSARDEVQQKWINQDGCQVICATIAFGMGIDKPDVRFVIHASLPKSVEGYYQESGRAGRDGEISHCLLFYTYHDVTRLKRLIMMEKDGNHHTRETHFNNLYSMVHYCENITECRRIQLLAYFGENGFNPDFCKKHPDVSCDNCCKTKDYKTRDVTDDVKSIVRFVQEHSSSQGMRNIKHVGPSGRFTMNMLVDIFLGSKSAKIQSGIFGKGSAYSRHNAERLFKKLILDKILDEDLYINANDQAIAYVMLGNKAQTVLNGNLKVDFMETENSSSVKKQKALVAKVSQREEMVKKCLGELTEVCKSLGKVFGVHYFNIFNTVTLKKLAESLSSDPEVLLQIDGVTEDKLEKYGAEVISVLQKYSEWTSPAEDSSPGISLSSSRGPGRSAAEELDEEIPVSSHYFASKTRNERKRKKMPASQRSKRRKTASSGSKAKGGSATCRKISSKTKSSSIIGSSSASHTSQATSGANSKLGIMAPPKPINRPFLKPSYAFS
Outline: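 BLM 50 nM in 25 mM Tris-HCl pH 8.0, 5 mM NaCl, 2 mM MgCl2, 1 mM DTT, 0.01% Tween-20, 2.5 ug/ml poly(dI-dC); 15 min cpd preinc, RT. Start: 200 nM forked DNA + 2 mM ATP (final). TAMRA read, 2 reads 2 h apart.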

[3] = Validation screen for small molecules that induce DNA re-replication in MCF 10A normal breast cells (AID 463097); further: nearly all actives have a fitted effect of over 60% in size; further: potency means the concentration at half of the fitted maximal effect
Outline: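 Read-out is Hoechst total nuclear intensity by fluorescence scanning imager, flagging increased high-DNA-content nuclei. Compounds were incubated with MCF 10A cells for 48 hr (37 C, 5% CO2) before 40 min staining.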

[4] = molecular target: Ferritin light chain (Equus caballus) (UniProt P02791); experiment: qHTS Validation Assay for Identification of Novel General Anesthetics (AID 2323); further: potency means the concentration at half of the fitted maximal effect
Chain of UniProt P02791 (P02791 whole entry, looked up): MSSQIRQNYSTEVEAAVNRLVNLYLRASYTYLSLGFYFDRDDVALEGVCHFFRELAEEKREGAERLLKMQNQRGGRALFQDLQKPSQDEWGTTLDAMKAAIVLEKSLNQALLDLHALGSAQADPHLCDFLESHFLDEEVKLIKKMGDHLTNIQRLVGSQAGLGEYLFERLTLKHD
Outline: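 Competitive displacement of the profluorescent anesthetic 1-AMA (50% saturated, PBS) from 10 uM apoferritin, 10 min, room temperature. Activity is normalized 380/535 nm fluorescence; concentration-response fitted with a four-parameter Hill equation.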

[5] = molecular target: DNA repair nuclease/redox regulator APEX1 (Homo sapiens) (UniProt P27695); experiment: Confirmation qHTS Assay for Inhibitors of the Human Apurinic/apyrimidinic Endonuclease 1 (APE1) (AID 2572); further: nearly all actives have a fitted effect of over 30% in size; further: potency means the concentration at half of the fitted maximal effect
Chain of UniProt P27695 (P27695 whole entry, looked up): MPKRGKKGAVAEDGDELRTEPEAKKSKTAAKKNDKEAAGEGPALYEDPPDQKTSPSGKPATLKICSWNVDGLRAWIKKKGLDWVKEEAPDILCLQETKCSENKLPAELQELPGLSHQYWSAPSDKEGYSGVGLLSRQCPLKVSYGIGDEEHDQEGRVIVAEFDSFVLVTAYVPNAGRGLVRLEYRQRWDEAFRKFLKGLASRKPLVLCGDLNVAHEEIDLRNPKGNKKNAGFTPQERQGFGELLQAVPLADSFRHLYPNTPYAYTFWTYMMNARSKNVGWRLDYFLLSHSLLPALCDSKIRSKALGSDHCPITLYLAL
Outline: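 No-enzyme wells served as negative control, enzyme-only wells as full activity. APE1 with compound for 15 min RT; 50 nM final fluorophore/quencher abasic duplex started the reaction; read 3 minus read 1 at 525/598 nm.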

[6] = Counterscreen for APE1 Inhibitors: Fluorescent Dye Displacement Assay (AID 2564); conditions: DNA fluorescent dye displacement counterscreen, fluorescence;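 further: loss of thiazole orange fluorescence as the dye is displaced from duplex DNA; potency means the concentration at half of the fitted maximal effect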
Outline: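 Thiazole Orange (250 nM) bound to 50 nM TAMRA-labelled dsDNA with tetrahydrofuran abasic site; displacement by DNA-binding compounds lowers fluorescence. Buffer 50 mM Tris-HCl pH 7.5, 50 mM NaCl, 2 mM MgCl2, 0.01% Tween-20; endpoint read at 480/540 nm.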

[7] = molecular target: Endonuclease 4 (Escherichia coli (strain K12)) (UniProt P0A6C1); experiment: Counterscreen for APE1 Inhibitors: qHTS Assay for Inhibitors of Endonuclease IV (AID 2565); further: potency means the concentration at half of the fitted maximal effect; conditions: E. coli Endo IV, fluorogenic AP-site DNA cleavage
Outline: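 Concentration-response counterscreen run identically to the APE1 assay: 15 min room-temperature preincubation of 2 nM enzyme with compound, reaction started with 50 nM quenched abasic DNA, progress taken from kinetic fluorescence.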

[8] = molecular target: Fructose-bisphosphate aldolase (Giardia intestinalis (strain ATCC 50803 / WB clone C6)) (UniProt A8B2U2); experiment: qHTS Assay for Inhibitors of Fructose-1,6-bisphosphate Aldolase from Giardia Lamblia: Primary screen confirmation (AID 2787); conditions: purified Giardia aldolase enzyme activity; further: potency means the concentration at half of the fitted maximal effect; nearly all actives have a fitted effect of over 45% in size
Chain of UniProt A8B2U2 (A8B2U2 whole entry, looked up): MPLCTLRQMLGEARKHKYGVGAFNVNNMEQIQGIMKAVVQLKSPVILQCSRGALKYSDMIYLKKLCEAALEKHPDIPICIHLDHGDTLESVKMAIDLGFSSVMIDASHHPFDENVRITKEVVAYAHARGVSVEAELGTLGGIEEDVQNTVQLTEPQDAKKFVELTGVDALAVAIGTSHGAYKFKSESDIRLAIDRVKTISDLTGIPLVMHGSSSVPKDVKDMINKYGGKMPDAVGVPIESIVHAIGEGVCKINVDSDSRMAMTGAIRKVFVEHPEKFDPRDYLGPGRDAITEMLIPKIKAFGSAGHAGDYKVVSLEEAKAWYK
Outline: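 Confirmation of primary hits by qHTS up to 57.5 uM final compound. Enzyme at 40 nM with 30 uM ZnCl2, 10 min RT pre-incubation, then substrate/coupling/resorufin-forming detection mix for 20 min before fluorescence read at 525/598 nm.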

[9] = molecular target: Fructose-bisphosphate aldolase A (Oryctolagus cuniculus) (UniProt P00883); experiment: qHTS Assay for Inhibitors of Fructose-1,6-bisphosphate Aldolase from Giardia Lamblia: Rabbit FBPA Selectivity (AID 2794); conditions: Rabbit muscle FBPA enzyme inhibition, selectivity counter-screen; further: potency means the concentration at half of the fitted maximal effect; nearly all actives have a fitted effect of over 60% in size
Chain of UniProt P00883 (P00883 whole entry, looked up): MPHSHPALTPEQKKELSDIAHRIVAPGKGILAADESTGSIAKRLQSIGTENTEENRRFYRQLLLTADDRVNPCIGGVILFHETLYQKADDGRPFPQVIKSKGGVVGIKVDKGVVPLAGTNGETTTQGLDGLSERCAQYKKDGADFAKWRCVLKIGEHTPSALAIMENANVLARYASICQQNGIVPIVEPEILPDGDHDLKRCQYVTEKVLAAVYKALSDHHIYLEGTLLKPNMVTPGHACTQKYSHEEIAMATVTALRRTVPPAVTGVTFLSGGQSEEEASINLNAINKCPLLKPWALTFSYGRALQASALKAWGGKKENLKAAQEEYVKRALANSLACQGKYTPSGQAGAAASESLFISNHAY
Outline: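 Selectivity was assessed on rabbit Class I enzyme by qHTS. Product formation was detected by AmpLite Red fluorescence (525/598 nm) after a 20 min RT reaction started with substrate, following 10 min compound preincubation at up to 57.5 uM final.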

[10] = qHTS Assay for Inhibitors of Fructose-1,6-bisphosphate Aldolase from Giardia Lamblia: Coupling assay counterscreen confirmation (AID 2795); conditions: GAPDH coupling enzyme counterscreen, biochemical; further: potency means the concentration at half of the fitted maximal effect; nearly all actives have a fitted effect of over 55% in size
Outline: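 GAPDH-coupled counterassay lacking aldolase; compound range up to 57.5 uM final; 10 + 20 min RT incubations; AmpLite Red fluorescence, 525/598 nm.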

[11] = High Content Imaging Cell-Based qHTS for Inhibitors of the mTORC1 Signaling Pathway in MEF Cells (AID 2667); further: potency means the concentration at half of the fitted maximal effect
Outline: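 MEF (Tsc2-/-, p53-/-, WT Tsc2 re-expressed); cpd 24 h, 37 °C; PFA fix; Alexa-488 anti-p-rpS6 Ser235/236, PI, Hoechst; IN Cell imaging; Hoechst/Alexa-488 intensity ratio; % active cells, thresholds set from rapamycin and DMSO wells.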

[12] = Cytometry Cell-Based qHTS for Inhibitors of the mTORC1 Signaling Pathway in MEF cells (AID 2668); further: potency means the concentration at half of the fitted maximal effect
Outline: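 Phospho-rpS6 (Ser235/236) immunofluorescence over PI signal, scored as % positive cells using thresholds from 7.5 nM rapamycin and DMSO wells, after 24 h compound exposure of WT-Tsc2-rescued Tsc2-/-, p53-/- MEFs. PI cell count recorded for viability.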

[13] = qHTS Validation Assay to Find Inhibitors of Chronic Active B-Cell Receptor Signaling (AID 485345; active means well fitted curve in the direction sought with a large enough effect in the main read-out, with a control signal flat, not every such curve was filed as active; inconclusive means small, poorly fitted or top-dose-only effect, or effect the other way, or a change in a side signal; inactive means no such curve, though single readings can be large or run the other way;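 further: 0% = untreated basal cells and 100% = 10 µM MG-132 proteasome inhibitor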); conditions: ABC-DLBCL cells, chronic BCR signaling reporter, CBG luciferase; at 46.1 µM (top of the series)
Outline: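 TMD8 ABC-DLBCL cells with dox-inducible green luciferase–IκBα fusion and red native luciferase; compounds 46 uM–3 nM, 4 h at 37C with doxycycline in 0.5% FBS IMDM. Green/red ratio normalized to basal and 10 uM MG-132.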

[14] = molecular target: DNA repair nuclease/redox regulator APEX1 (Homo sapiens) (UniProt P27695); experiment: qHTS FP-Based Assay for Inhibitors of the Human Apurinic/apyrimidinic Endonuclease 1 (APE1) (AID 2573); conditions: APE1 binding to TAMRA-labelled double-stranded DNA, fluorescence polarization displacement; further: potency means the concentration at half of the fitted maximal effect
[15] = Cytometric Cell-Based qHTS for Inhibitors of the mTORC1 Signaling Pathway in MEF (Tsc2-/-, p53-/-) Cells (AID 2660); further: potency means the concentration at half of the fitted maximal effect
Outline: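 Tsc2-/-, p53-/- MEFs (empty vector) exposed to compound 24 h at 37 C, fixed, stained with Alexa-488 anti-phospho-rpS6 Ser235/236 and propidium iodide. Acumen laser scanning; phospho-S6/PI ratio thresholded against 7.5 nM rapamycin, reported as % positive cells.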

[16] = High Content Imaging Cell-Based qHTS for Inhibitors of the mTORC1 Signaling Pathway in MEF (Tsc2-/-, p53-/-) Cells (AID 2666)
Outline: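 Read-out: % positive cells per well, with thresholds from highest- and lowest-signal wells, based on phospho-rpS6 (Ser235/236) intensity normalized to Hoechst nuclear stain. Cells: Tsc2-/-, p53-/- MEFs carrying empty vector; compound 24 hrs, 37 degree Celsius.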
Tags describe the fitted curve by direction and shape.

In the case of `Oc1ccc(-c2nc(-c3ccc(F)cc3)c(-c3ccncc3)[nH]2)cc1`, the Potency [1] was inconclusive: 8.91 µM [inhibitor, partial curve], the Potency [2] was inconclusive: 50100 nM [inhibitor, partial curve, poor fit] and the Potency [3] was inconclusive: 22.4 µM [activator, single point].
With `Cc1nc2n(c(=O)c1CCN1CCC(c3noc4cc(F)ccc34)CC1)CCCC2` the Potency [4] was “inactive” and the Potency [2] was “inactive”.
For `O=C1c2c(O)cc(O)cc2OC(c2ccc(O)c(O)c2)C1O` (stereo not given), the Potency [1] was active: 15.8 µM, the Potency [4] was inconclusive: 31.6 µM [inhibitor, partial curve] and the Potency [2] was inconclusive: 4470 nM [inhibitor, full curve, poor fit]. The Potency [3] was inconclusive: 31.6 µM [activator, single point].
For `CN1C2CCC1CC(OC(=O)C(CO)c1ccccc1)C2` (stereo not given), the Potency [1] was “inactive”, the Potency [4] was “inactive” and the Potency [3] was “inactive”.
In the case of `NS(=O)(=O)c1cc2c(cc1Cl)NCNS2(=O)=O`, the Potency [2] was “inactive” and the Potency [5] was “inactive”.
In the case of `O=c1oc2c(O)c(O)cc3c(=O)oc4c(O)c(O)cc1c4c23`, the Potency [6] was active: 0.0891 µM, the Potency [7] was inconclusive: 20 µM [inhibitor, partial curve, poor fit] and the Potency [5] was active: 0.0141 µM. The Potency [8] was inconclusive: 14.1 µM [inhibitor, partial curve], the Potency [9] was inconclusive: 63.1 µM [inhibitor, partial curve] and the Potency [10] was inconclusive: 79.4 µM [inhibitor, single point].
With `COc1cc2nc(N3CCN(C(=O)c4ccco4)CC3)nc(N)c2cc1OC` the Potency [2] was “inactive”, the Potency [11] was inconclusive: 18.5 µM [falling, single point] and the Potency [12] was inconclusive: 14.7 µM [falling, single point]. For the same compound, the Potency [3] was active: 15.8 µM.
With `Nc1nc(OCc2ccccc2)c2[nH]cnc2n1` the activity change [13] was inconclusive: -38.5%.
In the case of `NCCc1cnc[nH]1`, the Potency [2] was inconclusive: 0.0708 nM [inhibitor, full curve, poor fit] and the Potency [12] was “inactive”.
With `Cc1cccc(-c2[nH]c(C(C)(C)C)nc2-c2ccc3nccnc3c2)n1` the Potency [12] was inconclusive: 5.21 µM [falling, single point] and the activity change [13] was inactive: 15.7%.
With `Cc1cn([C@H]2C=C[C@@H](CO)O2)c(=O)[nH]c1=O` the Potency [2] was inconclusive: 794 nM [inhibitor, full curve].
With `S=c1nc[nH]c2nc[nH]c12` the Potency [8] was inconclusive: 39.8 µM [inhibitor, single point].
With `COc1ccc(C(=O)CC(=O)c2ccc(C(C)(C)C)cc2)cc1` the Potency [6] was inconclusive: 39.8 µM [inhibitor, partial curve] and the Potency [14] was inconclusive: 28.2 µM [inhibitor, partial curve, poor fit].
In the case of `COc1ccccc1OCCNCC(O)COc1cccc2[nH]c3ccccc3c12` (stereo not given), the Potency [11] was inconclusive: 14.7 µM [falling, single point] and the Potency [12] was inconclusive: 14.7 µM [falling, single point].
With `CC(CCc1ccc(O)cc1)NCCc1ccc(O)c(O)c1` (stereo not given) the Potency [2] was “inactive” and the Potency [3] was inconclusive: 22.4 µM [activator, single point].
With `CC1CC2C3CCC4=CC(=O)C=C[C@]4(C)[C@@]3(F)[C@@H](O)C[C@]2(C)[C@@]1(O)C(=O)CO` (stereo not given in full) the activity change [13] was inconclusive: -31.8%.
In the case of `NC(=O)c1ccc2[nH]ccc2c1`, the activity change [13] was inactive: -2.64%.
With `CN1CCC(=C2c3ccccc3C=Cc3ccccc32)CC1` the Potency [2] was “inactive” and the Potency [12] was inconclusive: 26.1 µM [falling, single point].
For `CC(C)NCC(O)COc1ccc(COCCOC(C)C)cc1` (stereo not given), the Potency [2] was “inactive”.
In the case of `CN[C@H](CC(C)C)C(=O)N[C@H]1C(=O)N[C@@H](CC(N)=O)C(=O)N[C@@H]2C(=O)N[C@H]3C(=O)N[C@H](C(=O)N[C@H](C(=O)O)c4cc(O)cc(O)c4-c4cc3ccc4O)[C@H](O)c3ccc(c(Cl)c3)Oc3cc2cc(c3O[C@@H]2O[C@H](CO)[C@@H](O)[C@H](O)[C@@H]2O[C@H]2C[C@](C)(N)[C@H](O)[C@H](C)O2)Oc2ccc(cc2Cl)[C@H]1O`, the Potency [12] was “inactive”.
With `CN(C)CCOC(c1ccccc1)c1ccccc1` the Potency [2] was “inactive” and the activity change [13] was inactive: -12.1%.
With `CN1CCN(CCCN2c3ccccc3Sc3ccc(Cl)cc32)CC1` the Potency [15] was inconclusive: 23.3 µM [falling, single point], the Potency [16] was inconclusive: 26.1 µM [falling, single point] and the Potency [11] was inconclusive: 13.1 µM [falling, partial curve, poor fit]. For the same compound, the Potency [12] was inconclusive: 16.5 µM [falling, single point] and the Potency [3] was inconclusive: 12.6 µM [activator, partial curve].
